Results taken from the supplement of paper PMC7238544.
Where a name gives a salt, the structure may show the parent alone. ± gives the standard deviation of the averaged measurements. This is one part of the list.

Test system: hAMSC donor 1
Assay: transgenic luciferase activity (RLU/mg protein) fold change vs vehicle control (ratio); hAMSC are human adipose-derived mesenchymal stem cells given an EGFP-luciferase plasmid by lipofection; higher = more transgene expression
Details: priming compound concentration 100 µM
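Note: compounds in DMSO added 30 min before Lipofectamine 3000 transfection of pEGFP-Luc in 96-well plates, values are means of triplicate wells over DMSO vehicle wells on the same plate.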

SMILES	transgenic luciferase activity
C=C(CC)C(=O)c1ccc(OCC(=O)O)c(Cl)c1Cl [Ethacrynic acid]	1.21 ± 0.56
CN(C)CCC=C1c2ccccc2CCc2ccccc21 [Amitriptyline hydrochloride]	0.13 ± 0.11
C[C@]12C=CC(=O)C=C1CC[C@@H]1[C@@H]2C(=O)C[C@@]2(C)[C@H]1CC[C@]2(O)C(=O)CO [Prednisone]	1.24 ± 0.36
Nc1nc(=O)c2nc(CNc3ccc(C(=O)N[C@@H](CCC(=O)O)C(=O)O)cc3)cnc2[nH]1 [Folic acid]	1.66 ± 0.81
CC[C@H]1OC(=O)[C@H](C)[C@@H](O[C@H]2C[C@@](C)(OC)[C@@H](O)[C@H](C)O2)[C@H](C)[C@@H](O[C@@H]2O[C@H](C)C[C@H](N(C)C)[C@H]2O)[C@](C)(OC)C[C@@H](C)C(=O)[C@H](C)[C@@H](O)[C@]1(C)O [Clarithromycin]	1.13 ± 0.54
CN1CCN(CCCN2c3ccccc3Sc3ccc(C(F)(F)F)cc32)CC1 [Trifluoperazine hydrochloride]	0.000515 ± 7.3e-05
NNCCc1ccccc1 [Phenelzine sulfate]	2.01 ± 1
O=C(O[C@@H]1C[C@@H]2C[C@H]3C[C@H](C1)N2CC3=O)c1c[nH]c2ccccc12 [Dolasetron mesylate]	0.88 ± 0.094
CC(C)NCC(O)c1ccc(NS(C)(=O)=O)cc1 (configuration not stated) [Sotalol hydrochloride]	0.404 ± 0.042
Cc1ncc([N+](=O)[O-])n1CC(O)CCl (configuration not stated) [Ornidazole]	1.17 ± 0.037
CNC(=N)NCCC[C@H](N)C(=O)O [L-NMMA acetate]	0.754 ± 0.3
C[C@]12CCC(=O)C=C1CC[C@@H]1[C@@H]2C(=O)C[C@@]2(C)[C@H]1CC[C@]2(O)C(=O)CO [Cortisone]	0.371 ± 0.17
CCOC(=O)c1ccc(OC(=O)CCCCCNC(=N)N)cc1 [Gabexate mesilate]	0.272 ± 0.085
CNCCC=C1c2ccccc2CCc2ccccc21 [Nortriptyline hydrochloride]	0.0677 ± 0.016
O=C(O[C@@H]1Cc2c(O)cc(O)cc2O[C@@H]1c1cc(O)c(O)c(O)c1)c1cc(O)c(O)c(O)c1 [Epigallocatechin gallate]	0.0175 ± 0.011
CC(C)Oc1ccc2c(=O)c(-c3ccccc3)coc2c1 [Ipriflavone]	3.04 ± 0.35

SMILES	transgenic luciferase activity
CC(=O)Oc1ccccc1C(=O)Nc1ncc([N+](=O)[O-])s1 [Nitazoxanide]	1.07 ± 0.6
CCN1CCN(C(=O)N[C@@H](C(=O)N[C@@H]2C(=O)N3[C@@H]2SC(C)(C)[C@@H]3C(=O)O)c2ccccc2)C(=O)C1=O [Piperacillin sodium]	0.547 ± 0.47
CC=CC(=O)N(CC)c1ccccc1C [Crotamiton]	0.777 ± 0.27
Nc1nc(Cl)nc2c1ncn2[C@H]1C[C@H](O)[C@@H](CO)O1 [Cladribine]	0.698 ± 0.11
CCOC(=O)[C@H](CCc1ccccc1)N[C@@H](C)C(=O)N1Cc2ccccc2C[C@H]1C(=O)O [Quinapril hydrochloride]	1.5 ± 0.46
C[N+]1(C)CCC(OC(=O)C(O)(c2ccccc2)C2CCCC2)C1 (configuration not stated) [Glycopyrronium bromide]	1.72 ± 0.48
CSc1ccc2c(c1)N(CCC1CCCCN1C)c1ccccc1S2 (configuration not stated) [Thioridazine hydrochloride]	0.0118 ± 0.0035
CC(C)NCC(O)COc1cccc2[nH]ccc12 (configuration not stated) [Pindolol]	0.654 ± 0.031
CC(C)n1c(/C=C/C(O)CC(O)CC(=O)O)c(-c2ccc(F)cc2)c2ccccc21 (configuration not stated) [Fluvastatin]	0.415 ± 0.14
CCOC(=O)c1ncn2c1CN(C)C(=O)c1cc(F)ccc1-2 [Flumazenil]	0.625 ± 0.17
CC(C)(C)NC(=O)[C@@H]1C[C@@H]2CCCC[C@@H]2CN1C[C@@H](O)[C@H](Cc1ccccc1)NC(=O)[C@H](CC(N)=O)NC(=O)c1ccc2ccccc2n1 [Saquinavir mesylate]	0.0312 ± 0.044
CC(C)(C)NC(=O)[C@@H]1CN(Cc2cccnc2)CCN1C[C@@H](O)C[C@@H](Cc1ccccc1)C(=O)N[C@H]1c2ccccc2C[C@H]1O [Indinavir sulfate]	0.4 ± 0.18
COCCCOc1ccnc(C[S+]([O-])c2nc3ccccc3[nH]2)c1C (configuration not stated) [Rabeprazole]	3.15 ± 3.6
CN(C)CCOC(c1ccccc1)c1ccccc1 [Diphenhydramine hydrochloride]	1.78 ± 0.47
Cc1nc2n(c(=O)c1CCN1CCC(c3noc4cc(F)ccc34)CC1)CCCC2 [Risperidone]	0.452 ± 0.12
CC[C@H](C)C(=O)O[C@H]1C[C@H](O)C=C2C=C[C@H](C)[C@H](CC[C@@H](O)C[C@@H](O)CC(=O)O)[C@H]21 [Pravastatin sodium]	0.772 ± 0.059
